From PubChem BioAssay AID485294 (National Center for Advancing Translational Sciences (NCATS), 2010)
In all, about 370,000 compounds went through this assay and about 150 (0.041%) were called active. This list was built around the results that the source calls inconclusive (neither active nor inactive); the mix of calls is not that of the screen. The call rests on the fitted dose curve; in most records, active means well fitted inhibition curve with a large enough effect; inconclusive means small, poorly fitted or top-dose-only effect; inactive means flat fitted curve, though single readings scatter. Potencies of inconclusive entries are left out as doubtful fits.

Molecular target: Beta-lactamase (Escherichia coli (strain K12)) (UniProt P00811)
Assay: qHTS Inhibitors of AmpC Beta-Lactamase (assay with detergent); further: nearly all actives have a fitted effect of over 25% in size;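 on activity change, negative = inhibition: 0% = no-compound wells and -100% = no-enzyme wells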
Settings: AmpC hydrolysis of nitrocefin, absorbance 480 nm, 0.01% Triton; activity change, negative = inhibition: at 114 µM (top of the series)
Method in brief: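 AmpC (5.3 nM in the dispensed reagent) in 20 mM phosphate pH 7.0 with 0.01% (detergent screen) or 0.0001% Triton X-100 was preincubated with compounds for 15 min at room temperature. Nitrocefin was then added from an 800 uM solution, and hydrolysis was followed at 480 nm.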
Potency means the concentration at half of the fitted maximal effect; tags describe the fitted curve by direction and shape.

Chain of UniProt P00811 (P00811 whole entry, looked up): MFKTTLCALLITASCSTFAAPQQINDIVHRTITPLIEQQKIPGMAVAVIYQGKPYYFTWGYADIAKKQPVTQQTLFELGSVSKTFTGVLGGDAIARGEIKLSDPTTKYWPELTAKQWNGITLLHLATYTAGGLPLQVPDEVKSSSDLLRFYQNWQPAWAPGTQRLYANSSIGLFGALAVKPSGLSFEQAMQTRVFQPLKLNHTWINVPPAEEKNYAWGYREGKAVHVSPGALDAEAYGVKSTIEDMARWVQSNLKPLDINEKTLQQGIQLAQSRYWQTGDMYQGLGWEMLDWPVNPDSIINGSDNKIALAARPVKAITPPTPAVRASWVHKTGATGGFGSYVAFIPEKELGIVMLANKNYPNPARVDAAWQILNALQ

Structure (SMILES) | activity change, negative = inhibition | Potency
CC(=O)c1cccc(Nc2cc(C)nc3nc(-c4ccccc4C)nn23)c1 | inactive: 2.64% | –
Cc1ccc(CNC(=O)C2CCCN(c3nc4c(C)cc(C)cc4s3)C2)cc1 (configuration not stated) | inactive: -1.47% | –
COc1cccc(C(=O)Nc2nnc(-c3ccccc3)s2)c1OC | inactive: -22.7% | –
Cc1ccc(C(=O)N/C(=C\c2ccccc2)C(=O)NCC2CCCO2)cc1 (configuration not stated) | – | inconclusive [inhibitor, full curve, poor fit]
Cc1noc(C)c1CSCC(=O)Nc1nc2ccccc2s1 | – | inconclusive [inhibitor, partial curve, poor fit]
CCC1=Nc2cc(C(=O)NCCCOC(C)C)ccc2Sc2ccc(C)cc21 | inactive: -0.0613% | –
Cn1c(=O)cc(OCC(=O)N2CCN(c3ccccc3F)CC2)c2ccccc21 | – | inconclusive [inhibitor, full curve, poor fit]
Cc1cccc(C)c1NC(=O)COC(=O)CSc1nnc(N)s1 | – | inconclusive [inhibitor, full curve]
COc1ccc(C)cc1NC(=O)C(OC(=O)c1cnc(C)cn1)c1ccccc1 (configuration not stated) | – | inconclusive [inhibitor, partial curve, poor fit]
Cc1ccc2c(CC(=O)Nc3ccc(S(=O)(=O)Nc4nc(C)cc(C)n4)cc3)coc2c1 | inactive: -6.41% | –
N/C(=N\OC(=O)c1ccc(Br)cc1)c1cccc([N+](=O)[O-])c1 | – | inconclusive [inhibitor, full curve, poor fit]
COc1cc(/C=N/Nc2ncc(C(F)(F)F)cc2Cl)cc(OC)c1OC | – | inconclusive [inhibitor, full curve, poor fit]
CC1(C)CC(=O)C(C2(O)C(=O)Nc3ccccc32)CO1 (configuration not stated) | – | inconclusive [inhibitor, full curve, poor fit]
CC1CCCCN1S(=O)(=O)c1cccc2cccnc12 (configuration not stated) | inactive: -13.9% | –
CCOC(=O)N1CCC(NC(=O)Cn2c3ccccc3c3cn[nH]c(=O)c32)CC1 | – | inconclusive [inhibitor, single point]
Cc1ccc(NCc2n[nH]c(=S)n2-c2cccc(Cl)c2)cc1 | inactive: -13.8% | –
COc1ccc(CCNC(=O)CS(=O)(=O)Cc2nc(-c3ccccc3Cl)oc2C)cc1OC | – | inconclusive [inhibitor, full curve, poor fit]
O=C(CC1(CC2=NS(=O)(=O)c3ccccc3N2)CCCC1)NCCc1ccccc1 | – | inconclusive [inhibitor, full curve]
Cn1c2ccccc2c2c(C(=O)NCC3CCCO3)cn(C3CCCC3)c(=O)c21 (configuration not stated) | – | inconclusive [inhibitor, partial curve]
CCCCc1nn2c(=O)cc(COC(=O)c3ccc(NC(=O)c4cccc(OC)c4)cc3)nc2s1 | – | inconclusive [inhibitor, partial curve, poor fit]
COC(=O)Cn1c(-c2ccc(OC)cc2)c(-c2ccc(OC)cc2)nnc1=O | – | inconclusive [inhibitor, partial curve, poor fit]

Structure (SMILES) | activity change, negative = inhibition | Potency
COc1ccc(S(=O)(=O)NC2CC2)cc1Cl | – | inconclusive [inhibitor, full curve, poor fit]
COC(=O)c1oc2ccc(Br)cc2c1NC(=O)CCCN1C(=O)c2ccccc2C1=O | – | inconclusive [inhibitor, full curve, poor fit]
CCOc1ccc(CCNC(=O)COC(=O)/C=C/c2ccc(OC(F)F)c(OC)c2)cc1OCC | – | inconclusive [inhibitor, full curve, poor fit]
CCCN1CCN(C(=O)C(NC(=O)c2ccco2)C(C)C)CC1 (configuration not stated) | – | inconclusive [inhibitor, partial curve, poor fit]
COc1ccc(/C=C2\N=C3CCCCCN3C2=O)cc1OC | – | inconclusive [inhibitor, partial curve]
O=C(O)CSC1CC(=O)N(c2ccc(Cl)cc2)C1=O (configuration not stated) | inactive: -6.24% | –
Cc1ccc(OCC(=O)Nc2cccc(C)n2)c(C)c1 | – | inconclusive [inhibitor, single point]
Cc1ccc(OCCN2C(=O)CSC2=O)cc1 | inactive: -0.82% | –
CCN(CC)CCn1c(O)c(N=O)c2ccccc21 | – | inconclusive [inhibitor, full curve]
CN1CCC(n2nccc2N)CC1 | – | inconclusive [inhibitor, full curve, poor fit]
COc1cccc(CNC(=O)c2ccc(Cl)c(S(=O)(=O)N3CCOCC3)c2)c1 | inactive: 1.9% | –
CCOC(=O)c1c(NC(=O)CN2C(=O)NC(C)(c3ccccc3)C2=O)sc(C)c1C (configuration not stated) | – | inconclusive [inhibitor, full curve, poor fit]
COCCn1c(SCC(=O)c2[nH]c(C)c(C(C)=O)c2C)nc2ccccc2c1=O | – | inconclusive [inhibitor, full curve, poor fit]
Cc1ccc(C(=O)c2c3ccccc3[n+]([O-])n2CCO)cc1 | – | inconclusive [inhibitor, single point]
COc1ccc(Cl)cc1NC(=S)N1CCCCCC1 | – | inconclusive [inhibitor, full curve, poor fit]
COc1ccc(CCN2C(=O)C3CC(C)=C(C)CC3C2=O)cc1OC (configuration not stated) | – | inconclusive [inhibitor, full curve, poor fit]
O=C(NCc1ccc2c(c1)OCO2)c1cccc([N+](=O)[O-])c1 | – | inconclusive [inhibitor, full curve]
CC(=O)c1ccc(OCc2cc(C(=O)N3CCC(c4ccncc4)CC3)no2)cc1 | – | inconclusive [inhibitor, partial curve, poor fit]
CCCC(=O)c1ccc(N2CCCCC2)c(F)c1 | – | inconclusive [inhibitor, single point]
COc1ccc(C2C3=C(CC(C)(C)CC3=O)Oc3ncn(Cc4ccccc4)c(=N)c32)cc1 (configuration not stated) | – | inconclusive [inhibitor, full curve, poor fit]
O=C(c1ccc(CS(=O)(=O)c2c(Cl)cccc2Cl)o1)N1CCN(c2ccccn2)CC1 | inactive: 4.96% | –
